From PubChem BioAssay AID894 (National Center for Advancing Translational Sciences (NCATS), 2007)
Out of some 150,000 compounds screened, about 6,500 (4.3%) were called active. The inconclusive results got no clear call from the source; some entries with a clear call stand among them for comparison. The call rests on the fitted dose curve; in most records, active means well fitted inhibition curve with a large enough effect (not every such curve was filed as active); inconclusive means small, poorly fitted or top-dose-only effect, or another doubt; inactive means no such curve, though single readings can be large or run the other way. Where the call is inconclusive, the potency comes from a doubtful curve fit.

biological target: 15-hydroxyprostaglandin dehydrogenase [NAD(+)] (Homo sapiens) (UniProt P15428); experiment: qHTS Assay for Inhibitors of HPGD (15-Hydroxyprostaglandin Dehydrogenase); details: purified HPGD, NADH fluorescence kinetic, PGE2 substrate; activity change, negative = inhibition: active compounds read low
Outline: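 NADH formation kinetics: reaction with 30 uM PGE2 and 1 mM NAD+ (final), 20 nM enzyme, Tris-HCl pH 8 with Tween 20, after 15 min compound preincubation at room temperature. Fluorescence change, last versus first of five reads.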
On the % scale 0 is the no-effect control and ±100 the full control effect; potency means the concentration at half of the fitted maximal effect; tags describe the fitted curve by direction and shape.

UniProt P15428, sequence (P15428 whole entry, looked up): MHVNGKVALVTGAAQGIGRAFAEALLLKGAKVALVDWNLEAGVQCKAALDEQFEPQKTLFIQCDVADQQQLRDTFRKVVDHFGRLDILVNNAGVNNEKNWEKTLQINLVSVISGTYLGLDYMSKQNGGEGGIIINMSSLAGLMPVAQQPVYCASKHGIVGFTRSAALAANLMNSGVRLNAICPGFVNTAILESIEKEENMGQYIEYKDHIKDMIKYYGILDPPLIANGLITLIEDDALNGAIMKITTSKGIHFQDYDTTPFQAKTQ

Potency, inconclusive:
Cc1nc(OCc2ccccc2)c2sc3nc4c(cc3c2n1)COC(C)(C)C4 31.6 µM [inhibitor, partial curve]
N/C(=N\OC(=O)c1cccc2ccccc12)c1cccc([N+](=O)[O-])c1 7.08 µM [inhibitor, partial curve]
Cc1nc(CS(=O)(=O)c2ccc(Cl)cc2)cc(Sc2ccc(Cl)cc2)n1 28.2 µM [inhibitor, partial curve]
COc1ccc(-c2nn(-c3ccccc3)cc2/C=C/C(=O)OCC(=O)Nc2ccc(C#N)cc2)cc1 31.6 µM [inhibitor, partial curve]
COc1ccc(OCc2nc3c4c(ncn3n2)-c2ccccc2CC42CCCC2)cc1 39.8 µM [inhibitor, single point]
Cc1cc2c(c(N3CCOCC3)n1)C(=O)OC2 39.8 µM [inhibitor, partial curve, poor fit]
CCN(CC)C(=O)CSc1nnc(-c2ccccc2)c(-c2ccccc2)n1 39.8 µM [inhibitor, partial curve, poor fit]
COc1cc(O)c2c(=O)cc(-c3ccc(OC)c(-c4c(O)cc(O)c5c(=O)cc(-c6ccc(O)cc6)oc45)c3)oc2c1 35.5 µM [inhibitor, single point]
Cc1cc(C)n(CCC(=O)N/N=C/c2ccccc2O)n1 25.1 µM [inhibitor, partial curve]
Cc1ccc(OCC(=O)N/N=C\c2ccc(-c3cccc(C(=O)O)c3)o2)c(C)c1 25.1 µM [inhibitor, partial curve]
CCCCN1C=C(C(=O)OC)C(c2ccccc2C(F)(F)F)C(C(=O)OC)=C1 31.6 µM [inhibitor, partial curve]
CCCCNC(=O)/C(C#N)=C/c1ccc(-c2ccc(S(=O)(=O)N3CCOCC3)cc2)o1 15.8 µM [inhibitor, partial curve]
O=C(Nc1cccc2ncccc12)c1ccc(-c2ccc(Br)cc2)o1 22.4 µM [inhibitor, partial curve]
CCCc1cc(NCC2CCCO2)n2c(nc3ccccc32)c1C#N (stereo unspecified) 25.1 µM [inhibitor, partial curve]
Nc1c(S(=O)(=O)c2ccccc2)c2nc3ccccc3nc2n1CCN1CCOCC1 31.6 µM [inhibitor, partial curve]
CCN(C(=O)c1cc2ccccc2oc1=O)c1cccc(C)c1 20 µM [inhibitor, partial curve]
CCN(CC)C(=O)c1ccc(S(=O)(=O)NCc2cccnc2)cc1 39.8 µM [inhibitor, partial curve]
COc1cc(/C=C(/C(=O)c2cccs2)c2nc3ccccc3[nH]2)cc(OC)c1O 25.1 µM [inhibitor, partial curve]
CCOC(=O)c1cc2c(=O)n3cccc(C)c3nc2n(CCCOC)c1=NC(=O)c1cccnc1 28.2 µM [inhibitor, partial curve]
Cc1ccc(/C=N/NC(=O)C2(O)c3ccccc3-c3ccccc32)o1 35.5 µM [inhibitor, single point]
COCCCNC(=O)c1ccc(Cn2c(=O)[nH]c3ccccc3c2=O)cc1 17.8 µM [inhibitor, partial curve]
CN1c2ccccc2-c2nc3ccccc3n2C1c1cccs1 (stereo unspecified) 31.6 µM [inhibitor, partial curve]
CCOC(=O)Cn1nnnc1C(CC)N(Cc1cccs1)Cc1cc2cc(C)ccc2[nH]c1=O (stereo unspecified) 35.5 µM [inhibitor, single point]

Potency, active:
C=CCn1c(SCC(=O)C(C)(C)C)nnc1-c1cccs1 14.1 µM
c1coc(-c2nn3c(Cn4nnc5ccccc54)nnc3s2)c1 10 µM
O=C(NC1CC2CCC1C2)C1COc2ccccc2O1 (stereo unspecified) 14.1 µM
O=C(CSc1nc2cccnc2n1Cc1ccccc1)NCc1ccco1 31.6 µM
Cc1cc(-c2nsc(=O)o2)c(S(C)(=O)=O)s1 4.47 µM
S=C(NCc1ccccc1)NCc1ccc2c(c1)OCO2 15.8 µM
O=S(=O)(NC1CCCC1)c1ccc(Br)s1 25.1 µM

Activity change, negative = inhibition, inactive:
CCC12CN(C(=O)c3ccc(OC)cc3)CC(CC)(CN(C(=O)c3ccc(OC)cc3)C1)C2=O -6.12%
CCOC(=O)N1CCN(c2c(NCCOC)c(=O)c2=O)CC1 -15%
Cc1cc(C)nc(N2CCC(C(=O)Nc3ccc4c(c3)CCC4)CC2)n1 -7.9%
COc1cccc(CN2C(=O)CCC2(C)C(=O)NC2CCCC2)c1 (stereo unspecified) -4.59%
Clc1ccc(/C=N/Nc2nn[nH]n2)cc1 -11.1%
CCCN1C(=O)/C(=C/c2ccc(C)o2)SC1=Nc1ccc(OCC)cc1 -11%
O=C1NC(c2cn(-c3ccccc3)nc2-c2cccs2)C(C(=O)c2cccnc2)C(O)(C(F)(F)F)N1 (stereo unspecified) 0.435%
COC(=O)[C@@]1(Cc2ccc(F)cc2)[C@H]2c3cc(C(=O)N(C)C)n(Cc4ccc(Cl)c(C(F)(F)F)c4)c3C[C@H]2CN1C(=O)c1ccccc1 -15.2%
COc1ccc(OCCCC(=O)Nc2nncs2)cc1 -12.2%
Cc1ccc(NC(=S)NCC(C)C)cc1 -15.7%
Cc1c(C(=O)N2CCCC2)sc(NC(=O)c2cccs2)c1C#N -24.8%
CC(NC(=O)CCc1ccccc1)c1cc2c(cc1Cl)OCCO2 (stereo unspecified) -4.31%
O=C(Nc1ccc([N+](=O)[O-])cc1Br)c1cccnc1 -19.4%
O=C(Nc1cccc(C(=O)N2CCCC2)c1)c1ccccc1Cl -15.7%
N[C@H](CC(=O)O)C(=O)O -6.63%
O=c1c(Cc2ccc(Cl)cc2)c(O)ccn1Cc1ccccc1 -6.27%
